In US20140030341A1, “POLYMERS AND METHODS FOR THE TREATMENT OF PAIN” (RUTGERS, THE STATE UNIVERSITY OF NEW JERSEY, priority 2011, published 2014):

System: Adult male C57Bl/6J mice
Settings: for time point by which analgesic effect was absent / diminished: i.p., free morphine 10 mg/kg, 3 at 50 mg/kg

Compound	time point by which analgesic effect was absent / diminished [h]	time of peak analgesia post-administration (free morphine 10 mg/kg i.p.) [min]
CN1CC[C@]23c4c5ccc(OC(=O)CCCC(=O)O)c4O[C@H]2[C@@H](OC(=O)CCCC(=O)O)C=C[C@H]3[C@H]1C5 [Diacid 3]	≤ 8	
CN1CC[C@]23c4c5ccc(O)c4O[C@H]2[C@@H](O)C=C[C@H]3[C@H]1C5 [morphine]	≤ 4	30
